# Measurements reported in US7425576B2, “Compounds as inhibitors of hepatitis C virus NS3 serine protease” (Schering Corporation, priority 2004, dated 2008).
# Biological target: Recombinant heterodimeric HCV NS3/NS4A protease (strain 1a) (Hepatitis C virus genotype 1a, UniProt P27958)
# Assay: Spectrophotometric assay for HCV protease inhibitory activity (chromogenic ester substrates)
# Type: biochemical
# Conditions: Table 1A, Ki* range class
row,Structure (SMILES),Ki [µM]
1,C=CCNC(=O)C(=O)C(CCCC)NC(=O)[C@@H]1[C@@H]2[C@H](CN1C(=O)[C@@H](NC(=O)N[C@H](COC(=O)NCC1CC1)C(C)(C)C)C1(C)CCCCC1)C2(C)C (stereo partly drawn) [Example 1116],< 0.075
2,C#CCCC(NC(=O)[C@@H]1[C@@H]2[C@H](CN1C(=O)[C@@H](NC(=O)N[C@H](COC(=O)NCC1CC1)C(C)(C)C)C1(C)CCCCC1)C2(C)C)C(=O)C(=O)NCCC (stereo partly drawn) [Example 1117],< 0.075
3,C=CCNC(=O)C(=O)C(CCC1CC1)NC(=O)[C@@H]1[C@@H]2[C@H](CN1C(=O)[C@@H](NC(=O)N[C@H](COC(=O)NCC1CC1)C(C)(C)C)C1(C)CCCCC1)C2(C)C (stereo partly drawn) [Example 1120],< 0.075

# Same assay, conditions: Table 2, Ki* range class
row,Structure (SMILES),Ki [µM]
1,C=CCNC(=O)C(=O)C(CCC(F)(F)F)NC(=O)[C@@H]1[C@@H]2[C@H](CN1C(=O)[C@@H](NC(=O)N[C@H](COC)C(C)(C)C)C1Cc3ccccc3C1)C2(C)C (stereo partly drawn) [Example 1406],0.075 to 0.25
2,COC(=O)OC[C@@H](NC(=O)N[C@H](C(=O)N1C[C@H]2[C@@H]([C@H]1C(=O)NC(CC1CC1)C(=O)C(N)=O)C2(C)C)C(C)(C)C)C(C)(C)C (stereo partly drawn) [Example 1408],< 0.075
3,COC(=O)OC[C@@H](NC(=O)N[C@H](C(=O)N1C[C@H]2[C@@H]([C@H]1C(=O)NC(CC1CCC1)C(=O)C(N)=O)C2(C)C)C(C)(C)C)C(C)C (stereo partly drawn) [Example 1409],0.075 to 0.25
4,C=CCNC(=O)C(=O)C(CCC)NC(=O)[C@@H]1[C@@H]2[C@H](CN1C(=O)[C@@H](NC(=O)N[C@H](COC(=O)OC)C(C)(C)C)C(C)(C)C)C2(C)C (stereo partly drawn) [Example 1410],< 0.075
5,CC(C)(C)[C@H](NC(=O)N[C@H](COC(=O)OCC1CC1)C(C)(C)C)C(=O)N1C[C@H]2[C@@H]([C@H]1C(=O)NC(CC1CCC1)C(=O)C(N)=O)C2(C)C (stereo partly drawn) [Example 1412],< 0.075
6,CC(C)[C@@H](COC(=O)OCC1CC1)NC(=O)N[C@H](C(=O)N1C[C@H]2[C@@H]([C@H]1C(=O)NC(CC1CCC1)C(=O)C(N)=O)C2(C)C)C(C)(C)C (stereo partly drawn) [Example 1414],< 0.075
7,COC(=O)OC[C@@H](NC(=O)N[C@H](C(=O)N1C[C@H]2[C@@H]([C@H]1C(=O)NC(CC1CC1)C(=O)C(N)=O)C2(C)C)C(C)(C)C)C1CCC1 (stereo partly drawn) [Example 1415],< 0.075
8,CC(C)COC(=O)OC[C@@H](NC(=O)N[C@H](C(=O)N1C[C@H]2[C@@H]([C@H]1C(=O)NC(CC1CCC1)C(=O)C(N)=O)C2(C)C)C(C)(C)C)C(C)C (stereo partly drawn) [Example 1417],< 0.075
9,COC(=O)OCC1(NC(=O)N[C@H](C(=O)N2C[C@H]3[C@@H]([C@H]2C(=O)NC(CC2CCC2)C(=O)C(N)=O)C3(C)C)C(C)(C)C)CCCCC1 (stereo partly drawn) [Example 1421],< 0.075
10,CNC(=O)OC[C@@H](NC(=O)N[C@H](C(=O)N1C[C@H]2[C@@H]([C@H]1C(=O)NC(CC1CC1)C(=O)C(N)=O)C2(C)C)C1Cc2ccccc2C1)C(C)(C)C (stereo partly drawn) [Example 1429],< 0.075
11,CC(C)(C)[C@H](NC(=O)N[C@H](COC(=O)NCC1CC1)C(C)(C)C)C(=O)N1C[C@H]2[C@@H]([C@H]1C(=O)NC(CC1CC1)C(=O)C(N)=O)C2(C)C (stereo partly drawn) [Example 1432],< 0.075
12,COC(=O)OC[C@@H](NC(=O)N[C@H](C(=O)N1CC2[C@@H](C1C(=O)NC(CC1CC1)C(=O)C(N)=O)C2(C)C)C(C)(C)C)C1CCCC1 (stereo partly drawn) [Example 1441],< 0.075
13,CCNC(=O)OC[C@@H](NC(=O)N[C@H](C(=O)N1C[C@H]2[C@@H]([C@H]1C(=O)NC(CC1CCC1)C(=O)C(N)=O)C2(C)C)C1CCCCC1)C(C)(C)C (stereo partly drawn) [Example 1443],0.075 to 0.25

# Same assay, conditions: Table 3, Ki* range class
row,Structure (SMILES),Ki [µM]
1,CC(C)[C@@H](COC(=O)NC(C)(C)C)NC(=O)N[C@H](C(=O)N1C[C@H]2[C@@H]([C@H]1C(=O)NC(CC1CC1)C(=O)C(N)=O)C2(C)C)C1Cc2ccccc2C1 (stereo partly drawn) [Example 1609],0.075 to 0.25
2,CC(C)(C)C(=O)OC[C@@H](NC(=O)N[C@H](C(=O)N1C[C@H]2[C@@H]([C@H]1C(=O)NC(CC1CC1)C(=O)C(N)=O)C2(C)C)C(C)(C)C)C(C)(C)C (stereo partly drawn) [Example 1611],< 0.075
3,CC(C)(C)C(=O)OC[C@@H](NC(=O)N[C@H](C(=O)N1C[C@H]2[C@@H]([C@H]1C(=O)NC(CC1CCC1)C(=O)C(N)=O)C2(C)C)C(C)(C)C)C(C)(C)C (stereo partly drawn) [Example 1612],< 0.075
4,CC(C)(C)[C@H](NC(=O)N[C@H](COc1ccccc1)C(C)(C)C)C(=O)N1C[C@H]2[C@@H]([C@H]1C(=O)NC(CC1CC1)C(=O)C(N)=O)C2(C)C (stereo partly drawn) [Example 1614],0.075 to 0.25
5,CC(C)(C)[C@H](NC(=O)NC1(COCc2ccccc2)CCCCC1)C(=O)N1C[C@H]2[C@@H]([C@H]1C(=O)NC(CC1CCC1)C(=O)C(N)=O)C21CC1 (stereo partly drawn) [Example 1616],> 0.25
6,CC(C)(C)[C@H](NC(=O)NC1(CO)CCCCC1)C(=O)N1C[C@H]2[C@@H]([C@H]1C(=O)NC(CC1CCC1)C(=O)C(N)=O)C21CC1 (stereo partly drawn) [Example 1617],0.075 to 0.25
7,CC(C)(C)[C@H](NC(=O)N[C@H](COc1ccccc1)C(C)(C)C)C(=O)N1C[C@H]2[C@@H]([C@H]1C(=O)NC(CC1CCC1)C(=O)C(N)=O)C2(C)C (stereo partly drawn) [Example 1618],0.075 to 0.25
8,CC(C)(C)[C@H](NC(=O)N[C@H](COCc1ccccc1)C(C)(C)C)C(=O)N1C[C@H]2[C@@H]([C@H]1C(=O)NC(CC1CCC1)C(=O)C(N)=O)C2(C)C (stereo partly drawn) [Example 1619],0.075 to 0.25

# Same assay, conditions: Table 6A, numeric Ki*
row,Structure (SMILES),Ki [µM]
1,C=CCNC(=O)C(=O)C(CCCC)NC(=O)[C@@H]1[C@@H]2[C@H](CN1C(=O)[C@@H](NC(=O)N[C@H](COC(=O)NCC1CC1)C(C)(C)C)C1(C)CCCCC1)C2(C)C (stereo partly drawn) [Example 1116],0.034
2,C#CCCC(NC(=O)[C@@H]1[C@@H]2[C@H](CN1C(=O)[C@@H](NC(=O)N[C@H](COC(=O)NCC1CC1)C(C)(C)C)C1(C)CCCCC1)C2(C)C)C(=O)C(=O)NCCC (stereo partly drawn) [Example 1117],0.019
3,C=CCNC(=O)C(=O)C(CCC1CC1)NC(=O)[C@@H]1[C@@H]2[C@H](CN1C(=O)[C@@H](NC(=O)N[C@H](COC(=O)NCC1CC1)C(C)(C)C)C1(C)CCCCC1)C2(C)C (stereo partly drawn) [Example 1120],0.03
